Test results published in PMC7489899.
Numbering of substitutions follows the chain as printed. Numbers in names are those of the source. Results are given in words; binding and its absence hold for the method and conditions named. Binding seen in cells or lysates may run through a third protein. Some entries that bind do so weakly or less than the wild type. For part of these data: Where a sequence is shown, tags or fusion partners need not be part of it. Each block holds one molecule with its values, some of them ahead of it.

By UniProt entry, the sequences of proteins in these tests, tags left out. Where a name states a change or a piece, a line headed by the entry shows the natural chain unless it says otherwise.
UniProt P50077: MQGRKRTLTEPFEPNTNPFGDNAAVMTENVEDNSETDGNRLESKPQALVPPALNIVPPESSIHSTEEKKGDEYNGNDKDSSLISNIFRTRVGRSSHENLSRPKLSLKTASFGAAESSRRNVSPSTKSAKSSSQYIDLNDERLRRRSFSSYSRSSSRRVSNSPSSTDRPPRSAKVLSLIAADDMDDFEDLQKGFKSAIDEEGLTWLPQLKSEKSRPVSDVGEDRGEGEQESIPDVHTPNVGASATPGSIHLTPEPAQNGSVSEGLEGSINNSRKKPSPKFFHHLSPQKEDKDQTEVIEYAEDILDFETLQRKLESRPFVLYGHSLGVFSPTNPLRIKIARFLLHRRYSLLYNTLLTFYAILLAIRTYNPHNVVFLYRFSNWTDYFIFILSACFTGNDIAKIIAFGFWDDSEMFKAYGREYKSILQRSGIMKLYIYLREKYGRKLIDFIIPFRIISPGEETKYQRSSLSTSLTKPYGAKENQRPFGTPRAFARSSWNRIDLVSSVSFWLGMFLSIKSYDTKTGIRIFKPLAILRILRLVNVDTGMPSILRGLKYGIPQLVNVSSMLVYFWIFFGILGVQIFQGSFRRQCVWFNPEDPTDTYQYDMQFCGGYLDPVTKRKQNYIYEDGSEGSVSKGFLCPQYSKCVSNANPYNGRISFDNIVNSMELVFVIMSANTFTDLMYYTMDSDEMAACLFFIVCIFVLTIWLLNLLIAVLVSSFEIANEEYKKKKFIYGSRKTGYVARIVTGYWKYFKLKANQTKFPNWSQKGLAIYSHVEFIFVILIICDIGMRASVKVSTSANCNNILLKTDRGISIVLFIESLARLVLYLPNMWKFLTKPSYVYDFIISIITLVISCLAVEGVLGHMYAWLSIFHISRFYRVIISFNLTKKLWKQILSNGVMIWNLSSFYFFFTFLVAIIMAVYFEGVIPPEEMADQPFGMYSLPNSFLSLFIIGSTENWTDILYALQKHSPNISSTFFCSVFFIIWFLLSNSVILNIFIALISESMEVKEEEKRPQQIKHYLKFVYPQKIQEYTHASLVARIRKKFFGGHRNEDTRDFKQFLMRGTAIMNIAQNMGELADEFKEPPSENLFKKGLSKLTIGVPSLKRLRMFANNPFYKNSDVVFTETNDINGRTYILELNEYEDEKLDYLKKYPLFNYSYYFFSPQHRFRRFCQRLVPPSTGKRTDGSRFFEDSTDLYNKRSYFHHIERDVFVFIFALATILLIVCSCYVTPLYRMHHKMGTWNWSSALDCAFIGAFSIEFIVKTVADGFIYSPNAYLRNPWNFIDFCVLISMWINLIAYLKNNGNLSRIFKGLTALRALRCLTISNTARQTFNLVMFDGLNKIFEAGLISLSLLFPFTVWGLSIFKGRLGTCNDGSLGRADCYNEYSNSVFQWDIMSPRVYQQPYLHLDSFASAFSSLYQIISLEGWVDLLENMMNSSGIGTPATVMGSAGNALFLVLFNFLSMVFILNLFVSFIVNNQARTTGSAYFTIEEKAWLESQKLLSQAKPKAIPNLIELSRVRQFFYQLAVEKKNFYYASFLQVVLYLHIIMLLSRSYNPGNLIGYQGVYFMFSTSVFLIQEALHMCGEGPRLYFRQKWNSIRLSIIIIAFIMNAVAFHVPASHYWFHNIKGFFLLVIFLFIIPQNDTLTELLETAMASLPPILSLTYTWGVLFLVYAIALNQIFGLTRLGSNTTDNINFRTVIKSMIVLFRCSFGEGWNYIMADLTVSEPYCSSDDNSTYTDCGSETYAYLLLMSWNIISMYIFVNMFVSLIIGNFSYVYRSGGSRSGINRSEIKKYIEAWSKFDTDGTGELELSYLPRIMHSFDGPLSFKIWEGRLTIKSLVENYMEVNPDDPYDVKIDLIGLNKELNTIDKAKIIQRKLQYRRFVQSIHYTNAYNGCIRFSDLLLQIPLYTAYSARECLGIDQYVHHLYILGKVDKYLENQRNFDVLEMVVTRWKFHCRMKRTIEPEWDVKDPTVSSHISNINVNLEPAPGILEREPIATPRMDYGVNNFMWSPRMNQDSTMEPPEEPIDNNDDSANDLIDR

Experiments:
[1] = target: T1, Mid1-FL^52 C417A/C431A/C498A (S. cerevisiae) (UniProt P41821); experiment: co-IP; whole-cell extracts of S. cerevisiae expressing both proteins; precipitated with anti-FLAG antibody (Mid1-FL^52 as bait) and nProtein A-Sepharose, 1 h at 4 °C; IP buffer 50 mM Tris-HCl pH 8.0, 1.0% Triton X-100, 150 mM NaCl, 2 mM EDTA; Western blot with anti-Cch1
T1 sequence: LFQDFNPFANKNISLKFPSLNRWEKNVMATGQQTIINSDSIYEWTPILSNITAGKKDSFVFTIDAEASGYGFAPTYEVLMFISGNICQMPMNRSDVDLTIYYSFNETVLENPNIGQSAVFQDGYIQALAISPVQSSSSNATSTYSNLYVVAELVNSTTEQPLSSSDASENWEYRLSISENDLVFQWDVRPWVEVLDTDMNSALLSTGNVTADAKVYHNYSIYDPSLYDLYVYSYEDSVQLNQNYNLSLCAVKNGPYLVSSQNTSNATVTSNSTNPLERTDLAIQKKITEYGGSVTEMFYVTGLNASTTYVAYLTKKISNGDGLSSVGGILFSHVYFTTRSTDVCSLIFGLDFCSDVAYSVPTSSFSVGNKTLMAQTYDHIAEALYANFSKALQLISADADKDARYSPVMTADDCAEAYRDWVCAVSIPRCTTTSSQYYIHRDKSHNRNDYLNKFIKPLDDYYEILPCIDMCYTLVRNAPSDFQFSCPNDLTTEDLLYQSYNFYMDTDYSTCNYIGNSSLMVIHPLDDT

[2] = target: T2, Mid1-FL^52 C417A/C498A (S. cerevisiae) (UniProt P41821); experiment: as above
T2 sequence: T1 sequence with A411C

[3] = target: T3, Mid1-FL^52 C431A/C498A (S. cerevisiae) (UniProt P41821); experiment: as above
T3 sequence: T1 sequence with A397C

[4] = target: T4, Mid1 tagged internally with FLAG (Mid1-FL^52), wild type (S. cerevisiae) (UniProt P41821); experiment: as above
T4 sequence: T1 sequence with A397C, A411C, A478C

[5] = target: Cch1 (Ca^2+ channel homolog 1), wild type (S. cerevisiae) (UniProt P50077); experiment: co-IP; whole-cell extracts of S. cerevisiae expressing both proteins; precipitated with anti-Cch1 antibody (Cch1 as bait) and nProtein A-Sepharose, 1 h at 4 °C; IP buffer 50 mM Tris-HCl pH 8.0, 1.0% Triton X-100, 150 mM NaCl, 2 mM EDTA; Western blot with anti-FLAG
[6] = target: Cch1-C1369A (S. cerevisiae) (UniProt P50077); experiment: as above
[7] = target: Cch1-C1379A (S. cerevisiae) (UniProt P50077); experiment: as above

Molecule: Cch1 (Ca^2+ channel homolog 1), wild type (from UniProt P50077 1-2039)
binding [1]: no binding
binding [2]: no binding
binding [3]: no binding
binding [4]: binds

Molecule: Cch1-C587A (from UniProt P50077 1-2039)
binding [4]: binds

Molecule: Cch1-C636A (from UniProt P50077 1-2039)
binding [4]: binds

Molecule: Cch1-C642A (from UniProt P50077 1-2039)
binding [4]: binds

Molecule: Cch1-C1284R (from UniProt P50077 1-2039)
binding [4]: binds

Molecule: Cch1-C1369A (from UniProt P50077 1-2039)
binding [4]: no binding

Molecule: Cch1-C1379A (from UniProt P50077 1-2039)
binding [4]: no binding

Molecule: Cch1-M1333K (from UniProt P50077 1-2039)
binding [4]: binds

Molecule: Cch1-S1322G (from UniProt P50077 1-2039)
binding [4]: binds

B1: Mid1 tagged internally with FLAG (Mid1-FL^52), wild type (protein, UniProt P41821 21-548)
chain: T1 sequence with A397C, A411C, A478C
binding [5]: binds
binding [6]: no binding
binding [7]: no binding

B2: Mid1-FL^52 C417A/C431A (protein, UniProt P41821 21-548)
chain: T1 sequence with A478C
binding [5]: binds

B3: Mid1-FL^52 C431A/C498A (protein, UniProt P41821 21-548)
chain: T1 sequence with A397C
binding [5]: no binding

Further lines, results first:

binding [4]: binds
Molecule: Cch1-C606A (from UniProt P50077 1-2039)

binding [4]: binds
Molecule: Cch1-C1727A (from UniProt P50077 1-2039)

binding [4]: binds
Molecule: Cch1-C1738A (from UniProt P50077 1-2039)

binding [4]: no binding
Molecule: Cch1-D1371V (from UniProt P50077 1-2039)

binding [4]: binds
Molecule: Cch1-M1393T (from UniProt P50077 1-2039)

binding [5]: no binding
B4: Mid1-FL^52 C417A/C431A/C498A (protein, UniProt P41821 21-548)
chain: T1 sequence

binding [5]: no binding
B5: Mid1-FL^52 C417A/C498A (protein, UniProt P41821 21-548)
chain: T1 sequence with A411C
